Test results from PubChem BioAssay AID1645887 (National Center for Advancing Translational Sciences (NCATS), 2021).
“And” between values parts separate entries of the source, which are not always exact repeats. Equal entries are not always repeated. The campaign covered roughly 16,000 compounds. About 40 (0.2%) were called active. Another 1% or so got no clear call; they are omitted. Calls come from the whole dose curve; as a rule, active = well fitted activation curve with a large enough effect; inconclusive = small, poorly fitted or top-dose-only effect, or another doubt; inactive = no such curve, though single readings can be large or run the other way. Some of the results follow.

What follows are molecules tested against Rap guanine nucleotide exchange factor 4 (Homo sapiens) (UniProt Q8WZA2) (assay: Validation qHTS for agonist of cAMP-regulated guanine nucleotide exchange factor 4 (EPAC2)). Conditions: EPAC2 Rap1B BODIPY-GDP exchange, fluorescence; activation: stronger effect = higher value.
UniProt Q8WZA2, sequence (Q8WZA2 whole entry, looked up): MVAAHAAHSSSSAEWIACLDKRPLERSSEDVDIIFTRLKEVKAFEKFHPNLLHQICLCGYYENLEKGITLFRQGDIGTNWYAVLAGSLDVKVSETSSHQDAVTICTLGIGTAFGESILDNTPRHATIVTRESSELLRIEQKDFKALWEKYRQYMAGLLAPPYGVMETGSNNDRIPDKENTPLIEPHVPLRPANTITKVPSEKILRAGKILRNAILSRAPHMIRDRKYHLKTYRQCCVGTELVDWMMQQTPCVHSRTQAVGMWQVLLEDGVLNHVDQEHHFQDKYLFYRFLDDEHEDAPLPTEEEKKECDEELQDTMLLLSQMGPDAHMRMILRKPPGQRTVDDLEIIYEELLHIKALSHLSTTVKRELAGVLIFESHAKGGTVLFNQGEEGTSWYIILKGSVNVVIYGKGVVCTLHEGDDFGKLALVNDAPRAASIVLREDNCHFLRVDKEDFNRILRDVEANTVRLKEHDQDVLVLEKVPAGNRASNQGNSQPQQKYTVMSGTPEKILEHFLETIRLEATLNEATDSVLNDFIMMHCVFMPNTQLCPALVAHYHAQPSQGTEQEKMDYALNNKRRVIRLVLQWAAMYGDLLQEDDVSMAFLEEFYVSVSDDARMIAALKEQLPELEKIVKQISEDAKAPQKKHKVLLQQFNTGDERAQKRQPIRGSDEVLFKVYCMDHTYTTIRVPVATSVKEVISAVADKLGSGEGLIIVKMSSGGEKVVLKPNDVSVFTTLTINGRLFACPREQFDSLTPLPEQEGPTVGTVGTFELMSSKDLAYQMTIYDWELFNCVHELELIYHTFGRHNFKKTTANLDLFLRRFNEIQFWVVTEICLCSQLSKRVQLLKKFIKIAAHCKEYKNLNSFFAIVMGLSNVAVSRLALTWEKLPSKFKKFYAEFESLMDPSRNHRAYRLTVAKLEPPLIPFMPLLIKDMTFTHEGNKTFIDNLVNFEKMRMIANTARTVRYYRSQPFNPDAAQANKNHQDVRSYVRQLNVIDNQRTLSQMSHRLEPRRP
Method in brief: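 Fluorescent exchange assay: 100 nM EPAC2 with 250 nM RAP1B-BODIPY-GDP and 50 uM GDP; compound added, 5 min at room temperature, then read (ex 480/em 540 nm) every 5 min for 30 min. Normalized to 6.5 mM cAMP agonist control.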
% is set by controls: 0 for no effect and ±100 for the full control effect.
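Note: exchange makes BODIPY-GDP fluorescence drop when released from Rap1B; series mostly up to about 150 µM.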

activation, inactive:
CCC(=O)O[C@]1(C(=O)SCF)[C@H](C)C[C@H]2[C@@H]3C[C@H](F)C4=CC(=O)C=C[C@]4(C)[C@@]3(F)[C@@H](O)C[C@@]21C -14.1%
CC1(C)S[C@@H]2[C@H](NC(=O)COc3ccccc3)C(=O)N2[C@@H]1C(=O)OCc1cccc2cccnc12 -13.4%
CCCCCCCCN1[C@@H](CC(C)=O)c2ccc(/C=C/C(C)=O)cc2S1(=O)=O -29%
Nc1ccn([C@H]2C[C@H](O)[C@@H](CO)O2)c(=O)n1 -7.69%
Cc1oc(-c2ccccc2NC(=O)C2CCCO2)nc1CNC(=O)c1cc(F)c(F)cc1F (configuration not stated) -7.07%
O=C(O)CN(CCN(CC(=O)O)CC(=O)O)CC(=O)O -8.43% and -15.6%
CC(C)(C)[C@H]1CCC(=O)N([C@H](CSc2ccccc2)Cc2ccccc2)CC1 -28.5%
COc1ccc2[nH]cc(CCNc3ccnc(-c4cccc(C#N)c4)n3)c2c1 5.11%
COc1ccccc1CN1CCC2(CC1)CCN(C(C)=O)CC2 -0.0278%
Clc1cccc(Cl)c1NC1=NCCN1 -8.88% [middle of 4 runs]
CC(=O)NCCNc1cc(-c2ccccc2CN(C)C)ncn1 -3.19%
Cn1cccc1C(=O)N1CCC2(CCN(C(=O)Nc3ccccc3)CC2)CC1 -10.3%
O=C1[C@H]2CCCC[C@H]2C(=O)N1CCCCN1CCN(c2nsc3ccccc23)CC1 -29.3%
CCCCCCC[n+]1ccc(/C=C/c2c[nH]c3ccccc23)c2ccccc21 29%
C[C@]12C=CC(=O)N[C@@H]1CC[C@@H]1[C@@H]2CC[C@]2(C)[C@@H](C(=O)Nc3cc(C(F)(F)F)ccc3C(F)(F)F)CC[C@@H]12 -4.5%
CC(C)C[C@@H](CO)N1CCNCCC1=O -11.4%
CCN1C(=O)c2ccccc2C1Nc1ccc(OCCN2CCCCC2)cc1 (configuration not stated) -7.25%
Cc1ncc(CO)c(C=O)c1O -8.02% and 14.8%
COc1ccc(-c2nc3cnc(N4CCN(C)CC4)nc3n(Cc3cccc(OC)c3)c2=O)cc1 -2.28%
COc1ncc2nc(-c3cn(C)c4ccccc34)c(=O)n(CCc3ccccc3)c2n1 -4.01%
CN(C)c1ccc(N=NS(=O)(=O)O)cc1 -15.3%
Cc1cnc(CNc2ccnc(-c3ccccc3C(F)(F)F)n2)cn1 -6.93%
COC(=O)c1ccccc1-c1cc(C)cc2c1OC(CNC(=O)c1occc1C)C2 (configuration not stated) 5.16%
CN1CCN(c2ncc3nc(-c4cc(F)cc(F)c4)c(=O)n(Cc4cccs4)c3n2)CC1 -5.57%
Cc1cnc(CNc2ncncc2-c2cccc(NS(C)(=O)=O)c2)cn1 -15.2%
CC(C)c1ncc([N+](=O)[O-])n1C -1.08%
O=c1c(-c2cccs2)nc2cnc(Oc3ccccc3)nc2n1Cc1cccs1 -7.11%
CCCCNC(=O)[C@@H]1CC=C[C@@H]2CCN(C3CC3)C(=O)[C@@H]21 -24.6%
COC(=O)c1ccccc1-c1cc(C)cc2c1OC(CNC(=O)C1CCCO1)C2 (configuration not stated) 3.81%
COc1cc2c(cc1OC)OC(C)(C)C=C2 -18.6%
CCC1C(=O)NCCN1Cc1ccc2c(c1)CN(Cc1ccc(F)c(OC)c1)CCO2 (configuration not stated) -5.02%
COCCn1c(=O)c(-c2ccc(OC)cc2)nc2cnc(N3CCN(C)CC3)nc21 8.36%
CO/N=C(/C(=O)NC1C(=O)N2C(C(=O)O)=C(COC(N)=O)CSC12)c1ccco1 (configuration not stated) -19.3%
CCCS(=O)(=O)NCc1c(C)ncc2c1CCN(C(=O)c1ccc(Cl)cc1)C2 -1.59%
CCCNC(=O)NS(=O)(=O)c1ccc(Cl)cc1 -8.85% and -14.6% and -40.7%
CCN(CC)C(C)CN1c2ccccc2Sc2ccccc21 (configuration not stated) 2.15% and -19.4% and -29.9%
COCCNc1ccnc(-c2ccccc2C(F)(F)F)n1 3.43%
CC(=O)O[C@]1(C(C)=O)CC[C@H]2[C@@H]3C=C(Cl)C4=CC(=O)CC[C@]4(C)[C@H]3CC[C@@]21C -1.01%
CN1CCN(CCc2ccc(Cl)c(Cl)c2)CC1 -4.32%
COc1cccc(CCNc2ncnc3sc(C(=O)N4CCN(C)CC4)c(C)c23)c1 -21.9%
CCC1C(=O)NCCN1Cc1ccc2c(c1)CN(Cc1ccc3c(c1)OCCO3)CCO2 (configuration not stated) -13.9%
CO[C@H]1[C@H](NC(=O)c2ccco2)c2ccccc2C12CCN(Cc1cnn(-c3ccccc3)c1)CC2 -10.6%
CC(=O)OC/C=C(\C)CC/C=C(\C)CC/C=C(\C)CC/C=C(\C)CC/C=C(\C)CC/C=C(\C)CC/C=C(\C)CC/C=C(\C)CCC=C(C)C -1.03%
CN1CCN(c2ncc3nc(-c4cn(C)c5ccccc45)c(=O)n(-c4ccccc4)c3n2)CC1 -9.69%
Cc1ccsc1C(=O)N(Cc1cc2cc3c(cc2nc1N1CCOCC1)CCC3)CC1CCCO1 (configuration not stated) -10.5%
COC(=O)C1CCN(Cc2ccc3c(c2)CN(C(=O)c2cc(C)on2)CCO3)CC1 -3.7%
Cc1cccc(CNc2cc(-c3ccccc3Cl)ncn2)c1 1.1%
NCCCCCC(=O)O 11.6% and -11.8% and -19.7%
CN(C)c1ccc(/C=C/c2cc(Cl)nc3ccccc23)cc1 -20.3%
O=C1C[C@H]2C=CCc3cccc(c32)CN1Cc1cccc(F)c1 -31.7%
CCc1ccc(S(=O)(=O)NCc2nc(N3CCCC3)c3cccc(C)c3n2)cc1 -1.03%
C=CC(C)(C)c1c2c(c(O)c3c(=O)c4ccc(O)c(O)c4oc13)C=CC(C)(C)O2 -70.7%
